# Experimental data: PMC4336329 (PLoS ONE, 2015)
# The whole screen tested about 310,000 compounds, of which about 2,200 (0.71%) showed an effect of 50% or more. The effect is printed as a negative number. This is one part of the list.
# Target: human ether-à-go-go-related gene (hERG) potassium channel (human, UniProt Q12809)
# Test: primary screen, population patch clamp on CHO cells stably expressing hERG
# Sequence of human ether-à-go-go-related gene (hERG) potassium channel (Q12809 whole entry, looked up): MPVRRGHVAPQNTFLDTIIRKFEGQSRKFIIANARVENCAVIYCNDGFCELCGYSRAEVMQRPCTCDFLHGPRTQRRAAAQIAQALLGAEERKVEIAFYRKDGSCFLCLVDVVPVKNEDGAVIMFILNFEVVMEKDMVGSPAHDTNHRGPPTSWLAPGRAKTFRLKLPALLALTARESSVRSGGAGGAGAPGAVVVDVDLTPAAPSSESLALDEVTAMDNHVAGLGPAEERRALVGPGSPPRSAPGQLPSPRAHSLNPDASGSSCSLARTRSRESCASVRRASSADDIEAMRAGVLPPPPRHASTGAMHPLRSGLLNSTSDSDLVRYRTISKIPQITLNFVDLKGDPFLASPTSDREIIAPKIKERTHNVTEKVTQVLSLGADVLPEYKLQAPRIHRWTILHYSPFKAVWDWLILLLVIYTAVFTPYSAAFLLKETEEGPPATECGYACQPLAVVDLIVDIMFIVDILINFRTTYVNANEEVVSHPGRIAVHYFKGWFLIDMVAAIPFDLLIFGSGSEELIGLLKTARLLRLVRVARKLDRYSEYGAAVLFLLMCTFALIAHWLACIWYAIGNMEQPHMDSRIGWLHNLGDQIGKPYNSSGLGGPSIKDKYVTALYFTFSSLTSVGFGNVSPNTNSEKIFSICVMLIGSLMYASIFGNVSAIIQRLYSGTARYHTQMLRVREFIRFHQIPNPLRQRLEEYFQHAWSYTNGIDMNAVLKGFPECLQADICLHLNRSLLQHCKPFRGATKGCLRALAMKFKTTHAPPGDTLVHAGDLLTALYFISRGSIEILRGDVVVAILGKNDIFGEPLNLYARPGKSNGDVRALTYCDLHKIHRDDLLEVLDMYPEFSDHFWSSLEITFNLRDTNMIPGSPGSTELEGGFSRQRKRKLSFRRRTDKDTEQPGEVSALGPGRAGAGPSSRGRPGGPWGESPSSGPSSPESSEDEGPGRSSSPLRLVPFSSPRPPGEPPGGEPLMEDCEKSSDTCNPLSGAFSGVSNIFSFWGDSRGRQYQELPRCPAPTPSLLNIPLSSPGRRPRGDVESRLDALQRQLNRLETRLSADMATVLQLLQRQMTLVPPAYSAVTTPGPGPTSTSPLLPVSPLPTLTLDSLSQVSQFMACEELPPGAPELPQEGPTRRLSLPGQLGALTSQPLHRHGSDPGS
row,Compound,"hERG current change (%, negative = inhibition) at 1uM"
1,CCOc1ccccc1NC(=O)CSc1nnc(CNC(=O)c2cc(OC)c(OC)c(OC)c2)o1,6.13%
2,CC1(C(=O)NCCN2CCOCC2)C=CCN1C(=O)c1ccccc1 (stereo not drawn),8.32%
3,O=C(N/N=C/c1ccco1)c1cccc(NC(=O)c2cccc(Cl)c2)c1,-5.21%
4,O=C(NCc1ccccc1)C1CCCN1C(=O)Nc1ccccc1[N+](=O)[O-] (stereo not drawn),12.5%
5,Cc1c(C(=O)NCCSCc2ccccc2Cl)cccc1[N+](=O)[O-],-10.7%
6,COc1ccc(S(=O)NC2CCCCC2)c(OC)c1C (stereo not drawn),3.85%
7,CNCCOc1ccccc1C(C)(C)C.O=C(O)C(=O)O,10.3%
8,CCN1CCN(Cc2cc(Br)ccc2O)CC1,6.15%
9,COc1cc(C)nn1-c1ccc(Cl)cc1,4.07%
10,COc1ccc(S(=O)(=O)NCc2cccnc2)cc1C(=O)NC1CCCCC1,12.7%
11,Cc1ccc(S(=O)(=O)NC(=O)c2cc(C)n(-c3ccccc3)c2C)cc1,8.61%
12,CCc1cccc(NC(=O)c2cccc3c2C(=O)N(CC2CCCO2)C3)c1 (stereo not drawn),-18.3%
13,C/C(=N\NC(=S)NC(C)C)c1ccc(C(C)(C)C)cc1,6.21%
14,COc1cccc(Cn2c(-c3cccs3)noc2=O)c1,-8.06%
15,COc1ccccc1NC(=O)c1cc(=O)[nH]c2ccccc12,17.9%
16,CCn1c(SCC(N)=O)nc2sc3c(c2c1=O)CCCC3,8.5%
17,O=C(O)c1ccnc(Cl)c1,4.18%
18,Cl.O=C(O)CSc1nc(-c2ccccc2)c(-c2ccccc2)[nH]1,9.63%
19,Cc1cc(Sc2nc(NC(C)(C)C)nc(N3CCOCC3)n2)nc(Cl)n1,13.9%
20,COc1ccc(OC)c(NC(=O)c2ccccc2SC)c1,-10.2%
21,COC(=O)c1ccccc1SC1CC(=O)N(c2ccccc2)C1=O (stereo not drawn),6.24%
22,CC(=O)c1c(C)[nH]c(C(=O)N2c3ccccc3CC2C)c1C (stereo not drawn),13.1%
23,O=C1C=C(c2ccc3[nH]ccc3c2)CCC1,17.4%

row,Compound,"hERG current change (%, negative = inhibition) at 1uM"
1,Nc1c(Nc2ccccc2)c2ccccc2oc1=O,7.71%
2,CCn1cc([N+](=O)[O-])c(C(=O)N2N=C(c3ccc(Cl)c(Cl)c3)CC2c2ccccc2O)n1 (stereo not drawn),0.0756%
3,CCCSc1nc(C)c(CC(=O)O)c(=O)[nH]1,12.6%
4,O=C(CSc1nc2cccnc2n1Cc1ccccc1)N1CCCC1,-48.8%
5,CCCC(=O)Nc1sc(C)c(-c2ccc(C(C)CC)cc2)c1C#N (stereo not drawn),14.2%
6,CCOC(=O)N1CCN(C(=O)CSc2nc3c(cnn3-c3ccccc3)c(=O)[nH]2)CC1,5.15%
7,Cc1ccc([N+](=O)[O-])c(-c2n[nH]c(=S)n2-c2cccc(Cl)c2)c1,18.1%
8,CN(C)/C=C/c1onc(-c2c(Cl)cccc2Cl)c1C#N,9.06%
9,Cc1cc(NC(=O)C(C)SCC(=O)OCC(=O)N(C)c2ccccc2)no1 (stereo not drawn),3.32%
10,COC(c1ccccc1)c1nnc(CCC(=O)N2CCN(C3CCCC3)CC2)o1 (stereo not drawn),-33.3%
11,Cc1nn(-c2ccc(F)cc2)c(Cl)c1/C=C/C(=O)OCC(=O)Nc1c(F)c(F)c(F)c(F)c1F,4.99%
12,COCCNS(=O)(=O)c1ccc(F)c(OC)c1,5.01%
13,Cc1c(C(=O)OC(C)C)nnn1-c1nonc1N,7.09%
14,CCC(=O)N1CC(=O)Nc2ccc(F)cc2C1c1ccccc1 (stereo not drawn),14.8%
15,Cn1c(-c2ccc[nH]c2=O)nc2cc(Cl)ccc21,15.7%
16,NC(=O)CC(NC(=O)Cc1ccc(Br)cc1)c1ccc(NC2CCCC2)c([N+](=O)[O-])c1 (stereo not drawn),3.31%
17,O=C(COC(=O)C1CCN(c2ccc(C(F)(F)F)cn2)CC1)NCc1ccccc1,11.1%
18,O=C(c1cccc(S(=O)(=O)N2CCN(c3ccccc3)CC2)c1)N1CCCCCCC1,-4.16%
19,COc1ccc(-n2c(SCC(=O)Nc3ccc4c(c3)OCO4)nc3ccccc3c2=O)cc1,2.4%
20,Cc1ccc(NC(=O)C2CC(=O)N(C(C)C)C2)cc1C (stereo not drawn),13.8%
21,Cc1cccc(N2CCN(S(=O)(=O)c3ccc4c(c3)CC(=O)N4C)CC2)c1C,17.4%
22,COc1ccc(N2CCN(C(=O)CCc3c[nH]c4ccccc34)CC2)cc1,8.33%
23,Clc1ccc2[nH]c3c(N4CCC5(CC4)OCCO5)ncnc3c2c1,-9.17%

row,Compound,"hERG current change (%, negative = inhibition) at 1uM"
1,Cc1ccccc1-c1nnc(SCC(=O)NC2CCCC2)n1C,4.56%
2,CC(C)C[C@H](NC(=O)OC(C)(C)C)C(=O)N/N=C/c1ccc2nccnc2c1,1.92%
3,CN(C(=O)Cn1cnc([N+](=O)[O-])n1)C1CCCCC1,5.68%
4,O=C(Nc1nc(-c2ccncc2)cs1)c1ccc(F)cc1,-7.65%
5,Cc1ccc(S(=O)(=O)NNC(=O)c2cc([N+](=O)[O-])c(C)c([N+](=O)[O-])c2)cc1,16%
6,CCC(C(=O)c1ccccc1)P(=O)(NN)c1ccccc1 (stereo not drawn),13.7%
7,NS(=O)(=O)c1ccc2c(c1)C1C=CCC1C(C1CC=CCC1)N2 (stereo not drawn),12.2%
8,Cc1cccnc1NC(=O)c1cccc(S(=O)(=O)N2CCCC2)c1,-5.52%
9,COc1cc(NC(=O)COC(=O)c2ccccc2F)cc(OC)c1,5.51%
10,CCN1C(=O)c2cccc3c(S(=O)(=O)Nc4ccccc4OC)ccc1c23,-1.68%
11,Cn1c(Cc2ccccc2)nnc1SCC(=O)NC1CCCCC1,13.5%
12,CC1(C)S[C@@H]2[C@H](NC(=O)[C@H](N)c3ccccc3)C(=O)N2[C@H]1C(=O)OC1OC(=O)c2ccccc21.Cl (stereo partly drawn),3.19%
13,CCOC(=O)CN1CC23C=CC(O2)C(C(=O)NCc2cccs2)C3C1=O (stereo not drawn),6.68%
14,COC(=O)c1sc(NC(=S)NC(=O)c2ccccc2)nc1C,7.92%
15,CCOC(=O)N1CCN(C(=O)C(C)c2ccc([N+](=O)[O-])cc2)CC1 (stereo not drawn),3.63%
16,Cc1c(Cl)cccc1NC(=O)NCc1ccc(F)cc1,15.7%
17,N/C(=N\OC(=O)Cc1cccc2ccccc12)c1ccccn1,10%
18,Nn1c(-c2cccc([N+](=O)[O-])c2)nc2ccccc2c1=O,6.24%
19,CCc1nnc(NS(=O)(=O)c2ccc(NC(=S)NC(=O)/C=C/c3ccc([N+](=O)[O-])cc3)cc2)s1,17.3%
20,COc1ccccc1-n1c(SCC(=O)NC(C)(C)C)nnc1-c1ccco1,-1.57%
21,COc1ccc(C(=O)NCCc2nc3cc([N+](=O)[O-])ccc3n2C)cc1,-8.03%
22,COc1cc(C)ccc1OCCOc1ccccc1Cl,13.7%
23,CCCOc1ccc(CC(=O)NCC2(c3ccccc3)CCOCC2)cc1OC,14.3%

row,Compound,"hERG current change (%, negative = inhibition) at 1uM"
1,COc1cc(SC)ccc1C(=O)Nc1c(C)cccc1C,-6.97%
2,O=C(CCNS(=O)(=O)c1ccccc1)OCc1nc2ccsc2c(=O)[nH]1,3.52%
3,CN(C)C(=O)CSc1nc2ccccc2c(=O)[nH]1,9.1%
4,Cc1cc(C(=O)NC2CCCc3c2cnn3-c2ccc(C)c(C)c2)no1 (stereo not drawn),1.86%
5,O=C(CSc1ccc2nnc(-c3ccccn3)n2n1)Nc1cccc(F)c1,-7.83%
6,Cc1cc(C)n2nc(C(=O)N3CCCC(Nc4ccc(C(C)C)cc4)C3)cc2n1 (stereo not drawn),8.9%
7,Cc1cc(C)c(OCC(=O)N2CC=C(c3ccccc3)CC2)c(C)c1,7.23%
8,CC(C)c1ccc(NC(=O)C2CC2c2ccccc2)cc1 (stereo not drawn),15.5%
9,Cc1ccc(-n2c(C)cc(/C=N/NC(=O)c3ccncc3)c2C)cc1,5.82%
10,NC(=O)c1ccc(NC(=O)CCCNC(=O)c2ccc(Cl)cc2)cc1,16.6%
11,COc1cccc(OC)c1CNC(=O)C1CCC(=O)N(CC2CCCCC2)C1 (stereo not drawn),7.23%
12,CCOc1ccc(CCNC(=O)c2cccc(S(=O)(=O)N3CCN(C(C)=O)CC3)c2)cc1OCC,-6.2%
13,Cc1cc(C)cc(NC(=O)OCCN2CCN(Cc3ccccc3)CCC2=O)c1,2.55%
14,Cl.Clc1cccc2c3c([nH]c12)CCNC3,15%
15,COc1cccc(NC(=O)C2CCN(S(=O)(=O)c3ccccc3)CC2)c1,8.41%
16,CCCCn1c(N)c(N(CC(C)C)C(=O)c2ccc([N+](=O)[O-])o2)c(=O)[nH]c1=O,6.81%
17,CNC(=O)c1sccc1SCc1ccc(Cl)cc1Cl,3.67%
18,CCN1CCCC1CNC(=O)CCc1nc(-c2ccc(C)cc2)no1 (stereo not drawn),0.531%
19,CCCc1ncc(C(=O)c2ccc(OC)cc2)n1C,10.8%
20,Cc1cc(Cl)c2oc(C(=O)N(C)CCCCN3CCOCC3)c(C)c2c1,1.07%
21,O=C(c1ccco1)N1CCN(C(c2ccccc2Cl)c2nnnn2Cc2cccs2)CC1 (stereo not drawn),-16.3%
